# Results reported in PubChem BioAssay AID504333 (National Center for Advancing Translational Sciences (NCATS), 2011).
# In all, about 360,000 compounds went through this assay and about 16,000 (4.4%) were called active. The inconclusive results got no clear call from the source; some entries with a clear call stand among them for comparison. Calls follow the shape of the dose curve; as a rule, active = well fitted inhibition curve with a large enough effect; inconclusive = small, poorly fitted or top-dose-only effect; inactive = no such curve, though single readings can be large or run the other way. Potencies of inconclusive entries are doubtful fits and often do not repeat.
# Target: Bromodomain adjacent to zinc finger domain protein 2B (Homo sapiens) (UniProt Q9UIF8)
# Assay: qHTS Assay for Inhibitors of BAZ2B; also: nearly all actives have a fitted effect of over 60% in size
# Settings: AlphaScreen BAZ2B-H3K14Ac peptide displacement; series mostly up to 114 µM
# Procedure, shortened: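 BAZ2B (50 nM) with biotin-H3(5-23)K14Ac peptide (50 nM) in PBS pH 7.4, 0.01% Tween-20, preformed 30 min, then compound 30 min at room temperature; top concentration 110uM. AlphaScreen streptavidin donor/nickel chelate acceptor beads (10 ug/mL final), 20 min dark, signal read.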
# Potency is read from the fitted curve at half-maximal effect; tags tell the direction and shape of the fitted curve.
# UniProt Q9UIF8, sequence (Q9UIF8 whole entry, looked up, the tested form may be a part): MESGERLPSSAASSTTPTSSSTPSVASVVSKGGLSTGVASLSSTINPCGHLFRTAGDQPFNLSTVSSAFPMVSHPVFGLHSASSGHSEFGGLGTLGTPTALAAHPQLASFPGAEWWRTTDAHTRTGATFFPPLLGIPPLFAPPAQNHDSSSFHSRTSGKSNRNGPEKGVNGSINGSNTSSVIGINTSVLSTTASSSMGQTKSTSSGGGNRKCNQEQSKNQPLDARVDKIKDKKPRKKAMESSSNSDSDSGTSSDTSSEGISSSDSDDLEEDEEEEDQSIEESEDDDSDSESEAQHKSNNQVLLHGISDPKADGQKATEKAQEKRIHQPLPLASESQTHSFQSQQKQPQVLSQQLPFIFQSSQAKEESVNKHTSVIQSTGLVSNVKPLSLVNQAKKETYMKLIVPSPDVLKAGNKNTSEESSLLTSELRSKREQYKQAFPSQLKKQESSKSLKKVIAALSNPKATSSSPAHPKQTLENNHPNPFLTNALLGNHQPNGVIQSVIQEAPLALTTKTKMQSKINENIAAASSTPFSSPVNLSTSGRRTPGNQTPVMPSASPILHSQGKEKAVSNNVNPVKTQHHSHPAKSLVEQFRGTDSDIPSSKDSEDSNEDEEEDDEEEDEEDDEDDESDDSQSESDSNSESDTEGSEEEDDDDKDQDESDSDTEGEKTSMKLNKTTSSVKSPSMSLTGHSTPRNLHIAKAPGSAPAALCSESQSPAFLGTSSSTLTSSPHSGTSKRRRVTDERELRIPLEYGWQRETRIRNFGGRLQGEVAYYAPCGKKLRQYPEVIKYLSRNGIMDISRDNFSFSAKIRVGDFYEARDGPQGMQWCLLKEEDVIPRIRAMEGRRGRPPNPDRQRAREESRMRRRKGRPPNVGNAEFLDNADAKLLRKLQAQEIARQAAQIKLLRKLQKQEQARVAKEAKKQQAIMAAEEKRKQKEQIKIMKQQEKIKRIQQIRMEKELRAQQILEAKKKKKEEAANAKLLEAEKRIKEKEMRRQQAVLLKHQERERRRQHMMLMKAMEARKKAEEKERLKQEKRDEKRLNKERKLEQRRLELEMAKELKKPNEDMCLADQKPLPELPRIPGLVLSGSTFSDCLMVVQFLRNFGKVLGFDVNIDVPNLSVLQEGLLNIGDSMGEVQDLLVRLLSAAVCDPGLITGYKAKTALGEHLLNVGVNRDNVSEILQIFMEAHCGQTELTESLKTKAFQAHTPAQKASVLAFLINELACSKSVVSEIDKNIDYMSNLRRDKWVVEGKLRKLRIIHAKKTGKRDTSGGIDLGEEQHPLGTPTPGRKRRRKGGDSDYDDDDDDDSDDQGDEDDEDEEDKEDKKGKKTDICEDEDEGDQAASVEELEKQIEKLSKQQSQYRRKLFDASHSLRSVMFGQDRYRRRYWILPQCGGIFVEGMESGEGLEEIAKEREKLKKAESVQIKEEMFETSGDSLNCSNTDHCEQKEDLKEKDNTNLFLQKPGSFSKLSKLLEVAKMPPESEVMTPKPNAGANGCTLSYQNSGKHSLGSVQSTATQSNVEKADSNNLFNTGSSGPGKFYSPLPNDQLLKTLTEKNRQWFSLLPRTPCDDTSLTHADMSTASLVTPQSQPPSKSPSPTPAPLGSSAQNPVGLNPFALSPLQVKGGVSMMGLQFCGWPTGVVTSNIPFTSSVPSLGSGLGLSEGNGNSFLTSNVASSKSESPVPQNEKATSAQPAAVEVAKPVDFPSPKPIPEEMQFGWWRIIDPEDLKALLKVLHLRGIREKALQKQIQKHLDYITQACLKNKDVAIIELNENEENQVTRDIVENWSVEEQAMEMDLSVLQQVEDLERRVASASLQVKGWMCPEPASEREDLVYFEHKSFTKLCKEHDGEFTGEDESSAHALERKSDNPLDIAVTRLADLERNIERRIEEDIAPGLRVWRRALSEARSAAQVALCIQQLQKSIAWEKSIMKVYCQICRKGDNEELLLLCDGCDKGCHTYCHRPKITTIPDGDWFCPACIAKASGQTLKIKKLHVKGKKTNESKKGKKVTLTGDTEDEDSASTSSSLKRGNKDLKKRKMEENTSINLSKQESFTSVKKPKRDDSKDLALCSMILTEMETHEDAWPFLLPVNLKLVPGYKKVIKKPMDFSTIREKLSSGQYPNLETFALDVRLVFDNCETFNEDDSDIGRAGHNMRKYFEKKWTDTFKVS
row,Structure (SMILES),Potency
1,COC(=O)c1ccc(/C=N/Nc2nc(-c3ccc(C)cc3)cs2)cc1,inactive
2,COc1cccc2cc(C(=O)C3=C(O)C(=O)N(CCN4CCOCC4)C3c3ccc(C)o3)oc12 (stereo not drawn),"inconclusive: 89.1 µM [inhibitor, single point]"
3,COc1ccc(C)cc1NC(=O)N1CCN(c2nnc(C)c3c(C)n(-c4ccccc4)nc23)CC1,inactive
4,CCC(OC(=O)CC1Sc2ccccc2NC1=O)C(=O)NCC1CCCO1 (stereo not drawn),"inconclusive: 89.1 µM [inhibitor, single point]"
5,Cn1cccc1/C=N/N1CCN(Cc2ccccc2Cl)CC1,active: 35.5 µM
6,O=[N+]([O-])c1cc(-c2nnc(Nc3ccccc3)c3ccccc23)ccc1N1CCOCC1,"inconclusive: 35.5 µM [inhibitor, full curve]"
7,O=C(CN1CCN(c2ccccn2)CC1)N1c2ccccc2Sc2ccc(C(F)(F)F)cc21,active: 22.4 µM
8,Cc1ccc(Cl)cc1NC(=S)NN,"inconclusive: 79.4 µM [inhibitor, single point]"
9,CN(C)c1oc(-c2cccs2)nc1C#N,"inconclusive: 50.1 µM [inhibitor, partial curve]"
10,CCOC(=O)C1=C(CN2CCN(c3ccc(OC)cc3)CC2)NC(=O)NC1c1ccc(OC)cc1 (stereo not drawn),active: 39.8 µM
11,Cc1ccc(Nc2nc3nonc3nc2Nc2cccc(C(F)(F)F)c2)cc1Cl,"inconclusive: 31.6 µM [inhibitor, full curve]"
12,Cc1noc(C)c1COC(=O)CCCc1c[nH]c2ccccc12,"inconclusive: 50.1 µM [inhibitor, partial curve]"
13,COc1ccc(C2NC(=S)NC3=C2CCCC3=C2SCCS2)cc1 (stereo not drawn),active: 31.6 µM
14,CNc1c(NC(=O)c2ccc(OC)c(OC)c2)c(=O)oc2ccccc12,inactive
15,COC(=O)CN1C(=O)Nc2ccc(Cl)cc2C1c1ccccc1 (stereo not drawn),inactive
16,CCN(CC)C(=O)Cn1c(=O)cc(C)c2c(C)nn(-c3cccc(Cl)c3C)c21,inactive
17,CC(C)C(NC(=O)/C(=C/c1ccco1)NC(=O)c1ccc(Br)o1)C(=O)O (stereo not drawn),"inconclusive: 79.4 µM [inhibitor, single point]"
18,O=C(CN1CCOCC1)Nc1ccc(Cl)cc1,inactive
19,O=C(Nc1ccccc1[N+](=O)[O-])c1nc[nH]c1C(=O)NCCO,active: 56.2 µM
20,Cc1ccc(N/C(=C\C(=O)c2ccccc2)C(=O)O)cc1,active: 56.2 µM
21,Brc1cccc(OCCN2CCCCC2)c1,"inconclusive: 89.1 µM [inhibitor, single point]"
22,O=c1cc(-c2ccccc2)[nH]n1-c1nc2ccccc2[nH]1,active: 28.2 µM
23,CC1CCN(C(=S)c2cn(Cc3ccccc3F)c3ccccc23)CC1,"inconclusive: 79.4 µM [inhibitor, single point]"
24,CCCCOc1cccc(C(=O)Nc2ccccc2N2CCCC2)c1,"inconclusive: 50.1 µM [inhibitor, partial curve]"
25,COc1ccccc1OCCn1c(NC(=O)c2ccccc2Cl)nc2ccccc21,inactive

row,Structure (SMILES),Potency
1,C#CCOCCOCCOCCNc1nc(N2CCN(C(=O)CCCCCCCCCCNC(=O)Cn3cc(CCCCCN)nn3)CC2)nc(N2CCN(C(=O)CCCCCCCCCCNC(=O)[C@H]([C@@H](C)CC)n3cc(CCCCCN)nn3)CC2)n1,"inconclusive: 50.1 µM [inhibitor, partial curve]"
2,COc1ccccc1-c1nn2c(-c3ccco3)nnc2s1,"inconclusive: 50.1 µM [inhibitor, partial curve]"
3,O=C(NCCn1cccc1)c1cccc2ccccc12,"inconclusive: 89.1 µM [inhibitor, single point]"
4,COc1ccc(NC(=O)CN2C(=O)CCn3nc(-c4cccn4C)cc32)cc1,"inconclusive: 44.7 µM [inhibitor, partial curve]"
5,CCOC(=O)C1CCCN1C(=O)c1ccc(OC)c(Br)c1 (stereo not drawn),"inconclusive: 112 µM [inhibitor, partial curve, poor fit]"
6,Cc1ccc(NC(=O)/C=C/c2ccco2)nc1,"inconclusive: 50.1 µM [inhibitor, partial curve]"
7,CCOCCc1c(O)nc(SCCOc2ccc(C)c(C)c2)[nH]c1=O,"inconclusive: 89.1 µM [inhibitor, single point]"
8,Cc1cc(Nc2ccccc2F)n2nc(-c3ccccc3)nc2n1,inactive
9,Cc1cc(S(=O)(=O)N2CCCC(N(C)CCc3ccccn3)C2)c(C)s1 (stereo not drawn),inactive
10,CCOC(=O)C1CCN(c2cc3c(cc2NC(=O)c2ccc(Cl)cc2)n(C)c(=O)n3C)CC1,"inconclusive: 89.1 µM [inhibitor, single point]"
11,Cc1ccccc1-c1nc(CS(=O)CC(=O)NC(C)CCc2ccccc2)c(C)o1 (stereo not drawn),"inconclusive: 79.4 µM [inhibitor, partial curve]"
12,CCOc1ccc(Nc2oc(-c3ccc(COc4ccc(OC)cc4)o3)nc2C#N)cc1,"inconclusive: 70.8 µM [inhibitor, single point]"
13,O=C(Nc1ccc2c(c1)OCO2)N1CCN(c2ccccc2Cl)CC1,"inconclusive: 50.1 µM [inhibitor, partial curve]"
14,COC(=O)c1ccc(Cl)cc1NC(=O)N1CC2CCCN2c2ccccc21 (stereo not drawn),"inconclusive: 28.2 µM [inhibitor, full curve]"
15,Cc1ccc(S(=O)(=O)NNC(=O)C(=O)NNc2ccccn2)cc1,"inconclusive: 89.1 µM [inhibitor, single point]"
16,CC(C)CC(OC(=O)c1cccs1)C(=O)NCc1ccco1 (stereo not drawn),inactive
17,c1ccc2c(c1)CCN(C1=Nc3cccc4cccc1c34)C2,active: 31.6 µM
18,C[N+]1(C2CCC3CCC2C3O)CCCC1 (stereo not drawn),active: 50.1 µM
19,COc1ccc(NC(=O)Cn2c(=O)n(-c3cc(C)cc(C)c3)c(=O)c3oc4ccccc4c32)cc1OC,inactive
20,O=C(Oc1cc(-c2ccccc2)no1)c1cccc(C(F)(F)F)c1,"inconclusive: 100 µM [inhibitor, single point]"
21,CCOc1cc(/C=C(\C#N)C(=O)Nc2cccc(C(=O)O)c2)cc(Br)c1OC(=O)c1ccc(OC)cc1,active: 50.1 µM
22,COc1ccccc1N(C(=O)c1ccco1)C(C(=O)NC1CCCCC1)c1cc(OC)c(OC)c(OC)c1 (stereo not drawn),inactive
23,CCc1cccc(NS(=O)(=O)c2c(C)nc3scc(C)n3c2=O)c1,inactive
24,O=C(COC(=O)c1cnccn1)Nc1ncc(Cl)cc1Cl,active: 50.1 µM
25,COc1ccccc1/C=C1\SC(=S)N(NS(=O)(=O)c2ccc(C)cc2)C1=O,active: 50.1 µM

row,Structure (SMILES),Potency
1,CCOc1ccccc1NC(=O)c1c(NC(=O)COc2ccc(Cl)cc2)sc2c1CCCCC2,"inconclusive: 70.8 µM [inhibitor, single point]"
2,COCCNC(=O)CCC(=O)NNc1nc2ccccc2c2nc(C)nn12,inactive
3,Cc1ccc(NC(=O)COC(=O)/C=C/c2cccs2)cc1,inactive
4,COc1cc(C2C(C(C)=O)=C(O)C(=O)N2c2ccc(C)cc2)ccc1O (stereo not drawn),"inconclusive: 79.4 µM [inhibitor, single point]"
5,Cc1c(OCC(=O)N2C[C@H]3C[C@@H](C2)c2cccc(=O)n2C3)ccc2c3c(c(=O)oc12)CCC3,"inconclusive: 89.1 µM [inhibitor, single point]"
6,O=C(CSCc1nc2c(nnn2Cc2ccc(F)cc2)c(=O)[nH]1)Nc1cccc(C(F)(F)F)c1,"inconclusive: 79.4 µM [inhibitor, single point]"
7,COc1ccc(N2CCN(c3oc(Cc4cccc5ccccc45)nc3C#N)CC2)cc1,active: 3.98 µM
8,CCN(CC)c1ccc2nc3ccccc3[n+](CC)c2c1,active: 39.8 µM
9,CN(C)c1ccc(C(CNS(=O)(=O)c2cccc([N+](=O)[O-])c2)N2CCOCC2)cc1 (stereo not drawn),inactive
10,O=C(O)c1ccccc1-c1ccc(/C=c2\sc3nc4cc(Br)cnc4n3c2=O)o1,active: 39.8 µM
11,CCOc1cc(C(=O)CCC(=O)OCC(=O)Nc2ccc(C)c(S(=O)(=O)N(C)C)c2)ccc1O,"inconclusive: 50.1 µM [inhibitor, partial curve, poor fit]"
12,O=S1(=O)NC(CC2=CCCCC2)C2CCCCC2O1 (stereo not drawn),inactive
13,CCOc1cc2sc(N3CCC(C(=O)Nc4ccc(CC)cc4)CC3)nc2cc1Br,inactive
14,CCc1ccc(C(=O)c2cn(CC(=O)Nc3ccc(Cl)cc3)c3cc4c(cc3c2=O)OCO4)cc1,inactive
15,CCOC(=O)C1=C(C)N=c2s/c(=C/c3cccc([N+](=O)[O-])c3O)c(=O)n2C1c1ccccc1 (stereo not drawn),active: 7.08 µM
16,Cc1ccc(OCCN2C(=O)S/C(=C\c3ccc(C)o3)C2=O)cc1,"inconclusive: 50.1 µM [inhibitor, partial curve]"
17,CCN(CC)C(=S)NC(=O)c1cccnc1,"inconclusive: 89.1 µM [inhibitor, single point]"
18,CC(=O)Nc1ccc(Sc2ncccc2C(=O)Nc2cc(Cl)cc(Cl)c2)cn1,"inconclusive: 89.1 µM [inhibitor, single point]"
19,Cc1ccc(SCc2ccc(C(=O)Nc3cc([N+](=O)[O-])ccc3C)cc2)cc1,"inconclusive: 89.1 µM [inhibitor, single point]"
20,O=C(CN(CC1CCCO1)C(=O)CNS(=O)(=O)c1ccc(F)cc1)NCc1ccccc1 (stereo not drawn),inactive
21,Cc1cccc(-c2cc(=O)c(C(=O)O)cn2-c2ccc(F)cc2F)c1,"inconclusive: 89.1 µM [inhibitor, single point]"
22,FC(F)Oc1ccccc1C1CC(c2ccc(Br)s2)Nc2ncnn21 (stereo not drawn),"inconclusive: 79.4 µM [inhibitor, single point]"
23,S=C(Nc1ccc(Cl)c(Cl)c1)N1CCOCC1,inactive
